Reference: PubChem BioAssay AID588855 (National Center for Advancing Translational Sciences (NCATS), 2011)
In all, about 410,000 compounds went through this assay and about 5,000 (1.2%) were called active. The inconclusive results got no clear call from the source; some entries with a clear call stand among them for comparison. Calls come from the whole dose curve; as a rule, active = well fitted inhibition curve with a large enough effect; inconclusive = small, poorly fitted or top-dose-only effect; inactive = no such curve, though single readings can be large or run the other way. Potencies of inconclusive entries are doubtful fits and often do not repeat.

Assay: qHTS for Inhibitors of TGF-b; note: nearly all actives have a fitted effect of over 65% in size
Conditions: HepG2 CAGA-GFP TGF-b/SMAD3 reporter, GFP fluorescence, 18 h, TGF-beta stimulated, 500 pg/mL final; series mostly up to 46.1 µM; activity, negative = inhibition: at the top concentration
Method in brief: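 HEPG2 CAGA-GFP reporter cells (1000/well, DMEM with 1% FBS) received compounds, then recombinant TGF-beta at 500 pg/mL final for 18 hours at 37 degrees C. Per-cell GFP summed per well was normalised to unstimulated and stimulated DMSO controls before curve fitting.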
% is set by controls: 0 for no effect and ±100 for the full control effect; potency is the fitted concentration of half-maximal effect; tags give direction and shape of the fitted curve.

Structure (SMILES) | Potency | activity, negative = inhibition
COc1cccc(CNC(=O)CSCC(=O)Nc2cc(C)on2)c1 | inconclusive: 3.55 µM [inhibitor, single point] | 
O=C(CC1C(=O)NCCN1C(=O)Nc1ccccc1)Nc1cccc(Cl)c1 (stereo not drawn) |  | inactive: -3.75%
Cc1cc(N2CCN(S(=O)(=O)c3ccccc3)CC2)c2ccccc2n1 | inconclusive: 12.6 µM [inhibitor, partial curve, poor fit] | 
O=C(CSc1nc(Nc2ccccc2)nc(N2CCOCC2)n1)Nc1cc(Cl)ccc1O | inconclusive: 25.1 µM [inhibitor, single point] | 
COc1ccccc1CNc1nc(NCc2ccc(C(C)C)cc2)c2sccc2n1 | inconclusive: 35.5 µM [inhibitor, single point] | 
CCOC(=O)Nc1ccc2c(c1)C(=NNC(N)=S)c1ccccc1-2 | inconclusive: 3.98 µM [inhibitor, partial curve, poor fit] | 
CCc1nc(SCC(=O)c2ccc(C)c(C)c2)n[nH]1 | inconclusive: 5.62 µM [inhibitor, single point] | 
CC(C)Oc1ccc(CNC(=O)c2ccc(CS(=O)Cc3ccccc3Cl)o2)cc1 (stereo not drawn) | inconclusive: 8.91 µM [inhibitor, partial curve, poor fit] | 
Fc1cccc(CNc2ncnc3ccc(-c4ccc5c(c4)OCO5)cc23)c1 | inconclusive: 25.1 µM [inhibitor, single point] | 
O=C1c2c(O)ccc(O)c2C(=O)c2c(NCCNCCO)ccc(NCCNCCO)c21 | active: 1.58 µM | 
COC(=O)C1CCN(Cc2ccc(OCCCN3CCN(c4ccc([N+](=O)[O-])cc4)CC3)cc2)CC1 |  | inactive: -11%
CCOC(=O)c1c(NC(=O)CSc2cn(CCNC(=O)c3ccc(OC)c(OC)c3)c3ccccc23)sc2c1CCC2 | inconclusive: 15.8 µM [inhibitor, partial curve] | 
CCOc1ccc(NC(=O)CN(C)C(=O)c2ccc(COc3ccccc3)cc2)cc1OCC | inconclusive: 11.2 µM [inhibitor, single point] | 
Cc1cn2c(=O)cc(COC(=O)c3cccc(NC(=O)COc4ccccc4)c3)nc2s1 | inconclusive: 22.4 µM [inhibitor, single point] | 
CCOC(=O)C(C)(C)N(Cc1cccc(C)c1)S(=O)(=O)c1cccc([N+](=O)[O-])c1 | inconclusive: 35.5 µM [inhibitor, single point] | 
CCCCN(CC)CCNC(=O)c1cc2c(=O)[nH]c3ccc(C)cc3c2s1 | inconclusive: 35.5 µM [inhibitor, single point] | 
CSc1cccc(Nc2ccc(S(=O)(=O)N3CCOCC3)cc2[N+](=O)[O-])c1 |  | inactive: -17.6%
Cc1cccc(N2CCN(c3nc4ccc(C(=O)c5ccccc5)cc4n4cnnc34)CC2C)c1 (stereo not drawn) |  | inactive: 0%
Cc1ccc(-n2nc(C(=O)NCc3ccc(F)cc3Cl)c3c4ccccc4n(C)c3c2=O)cc1 |  | inactive: 10.5%
CCOc1cc(C(=O)N2CCC(CC3CC(c4ccc(Cl)cc4)=NO3)(C(=O)NCC3CCCCC3)CC2)cc(OCC)c1OCC (stereo not drawn) | inconclusive: 6.31 µM [inhibitor, partial curve, poor fit] | 
O=C(Nc1ccc(F)c(Cl)c1)c1cc(C2CCCCN2C(=O)c2cccs2)on1 (stereo not drawn) | inconclusive: 35.5 µM [inhibitor, single point] | 

Structure (SMILES) | Potency | activity, negative = inhibition
CCOc1ccc(OCC(O)CN2CCc3ccccc3C2)cc1 (stereo not drawn) |  | inactive: -7.64%
O=C(N[C@@H]1CCC(=O)N(CC[C@H](Oc2ccccc2)c2ccccc2)CC1)OCc1ccccc1 | inconclusive: 28.2 µM [inhibitor, single point] | 
Cc1sc(NC(=O)c2ccccc2)c(C(=O)c2ccccc2)c1C |  | inactive: -22.2%
COc1ccc(NC(=O)c2ccc3c(c2)N(Cc2cccc(Cl)c2)C(=O)c2ccccc2S3(=O)=O)cc1Cl |  | inactive: -7.91%
CCOc1ccccc1CNC(=O)C1CCN(C(=O)N2CCOc3ccc(Cl)cc32)CC1 | inconclusive: 35.5 µM [inhibitor, single point] | 
O=C(OCc1nc2scc(-c3ccccc3)c2c(=O)[nH]1)c1ccco1 | inconclusive: 3.98 µM [inhibitor, full curve, poor fit] | 
COc1ccc(F)cc1-c1nc(N)nc(N)n1 | inconclusive: 35.5 µM [inhibitor, single point] | 
CC1=Nc2cc(C(=O)NC3CCC(C)CC3)ccc2Sc2c(C)ccc(C)c21 (stereo not drawn) | inconclusive: 7.08 µM [inhibitor, partial curve] | 
O=C1C2C3C=CC(C3)C2C(=O)N1CCN1CCN(S(=O)(=O)c2ccc3ccccc3c2)CC1 (stereo not drawn) | inconclusive: 12.6 µM [inhibitor, single point] | 
CC(=O)NCCNc1nc2cc(-c3ccc(C)cc3)sc2c(=O)n1C | inconclusive: 2.51 µM [inhibitor, full curve] | 
CNC[C@H](Cc1ccccc1)NC[C@@H](Cc1cccc2ccccc12)NCCc1ccc(C)cc1 | inconclusive: 35.5 µM [inhibitor, single point] | 
Clc1ccc(CSc2nnc(-c3c[nH]c4ccccc34)o2)cc1 | active: 15.8 µM | 
CC(=O)Nc1ccc(NC(=O)c2ccc(COc3ccc(Cl)cc3Cl)o2)cc1 | inconclusive: 35.5 µM [inhibitor, single point] | 
CCOc1ccc(-c2cc(-c3nc(-c4cc(OC)c(OC)c(OC)c4)no3)[nH]n2)cc1Cl |  | inactive: -3.24%
C[C@H]1CN([C@@H](C)CO)C(=O)Cc2cc(NC(=O)CCC(F)(F)F)ccc2O[C@H]1CN(C)Cc1ccc(-c2ccccc2)cc1 | active: 12.6 µM | 
Cc1ccc(-n2nc(CO)c(C(=O)NCc3cccs3)n2)cc1C | inconclusive: 0.355 µM [inhibitor, partial curve, poor fit] | 
O=C(Nc1ccc(S(=O)(=O)Nc2ncccn2)cc1)C1=COCCO1 | inconclusive: 35.5 µM [inhibitor, single point] | 
OC(CN(c1ccccc1)c1ccccc1)Cn1cnc2ccccc21 (stereo not drawn) | inconclusive: 17.8 µM [inhibitor, single point] | 
CN(C)CCCN(Cc1cc2cc3c(cc2[nH]c1=O)OCO3)C(=S)Nc1cccc(Cl)c1 | inconclusive: 25.1 µM [inhibitor, single point] | 
CCOc1cccc(-c2c(C(=O)N/N=C(\C)c3cccs3)nnn2-c2nonc2N)c1 | inconclusive: 22.4 µM [inhibitor, single point] | 
CC(=O)c1ccc(NC(=O)C(C)n2nc(-c3ccccc3)c3cc(Cl)ccc32)cc1 (stereo not drawn) | inconclusive: 25.1 µM [inhibitor, single point] | 

Structure (SMILES) | Potency | activity, negative = inhibition
CC(=O)N1CCOCC1c1cc(C(=O)Nc2ccccc2)no1 (stereo not drawn) |  | inactive: 2.21%
COCCNc1nc(NCc2cccc(OC)c2)c2sc(-c3ccccc3)cc2n1 | inconclusive: 11.2 µM [inhibitor, partial curve, poor fit] | 
O=C(O)c1ccccc1C(=O)Nc1ccc(-n2nc(C(F)(F)F)cc2C(F)(F)F)cc1 | inconclusive: 35.5 µM [inhibitor, single point] | 
O=C(Nc1ccc(F)cc1)Nc1nnc([C@@H]2C[C@H](O)[C@@H](CO)O2)s1 |  | inactive: -19.4%
O=C(NCc1ccc(Cl)cc1)c1ccc(-c2ccc(F)c(F)c2)c2ccoc12 |  | inactive: -18.1%
O=C(CCCn1c(=O)c2ccccc2n(Cc2ccc(F)cc2Cl)c1=O)NCCc1ccc(Cl)cc1 |  | inactive: -4.58%
COc1ccccc1/C=C(/CC(=O)NCc1ccc(F)cc1)c1nc2ccccc2s1 | inconclusive: 15.8 µM [inhibitor, single point] | 
O=C(NCc1ccc2c(c1)OCO2)c1nc(S(=O)(=O)Cc2ccccc2F)ncc1Cl | active: 11.2 µM | 
Cc1cc(N2CCN(C)CC2)nc2ccc(NC(=S)N3CCC4(CC3)OCCO4)cc12 |  | inactive: -11.7%
COCCN(C(=O)c1ccc(-c2ccc(Cl)cc2)o1)c1c(N)n(Cc2ccccc2)c(=O)[nH]c1=O | inconclusive: 35.5 µM [inhibitor, single point] | 
COc1cc(NC(=O)Cn2ncc(Cl)c(Cl)c2=O)c(C)cc1[N+](=O)[O-] | inconclusive: 35.5 µM [inhibitor, partial curve, poor fit] | 
COc1cc(CNC2CCCC2)cc(Cl)c1OCc1ccccc1F | inconclusive: 20 µM [inhibitor, partial curve, poor fit] | 
CN1C(=O)N(CC(=O)N2CCN(S(=O)(=O)/C=C/c3ccccc3)CC2)C(=O)C12CCCCC2 | inconclusive: 14.1 µM [inhibitor, single point] | 
COc1ccccc1NC(=O)C12CC3CC(C1)CC(c1ccc(C)cc1)(C3)C2 |  | inactive: -4.22%
COc1cc2c(cc1OC)C(COc1ccc(F)cc1)N(C(=O)c1ccc(S(=O)(=O)N3CCCC3)cc1)CC2 (stereo not drawn) |  | inactive: 9.2%
O=Nc1c(O)[nH]c2ccc(F)cc12 |  | inactive: -9.36%
COc1cc(C2CC(=O)N(Cc3ccc(F)cc3)c3ccccc3S2)cc(OC)c1OC (stereo not drawn) | inconclusive: 22.4 µM [inhibitor, single point] | 
CCN1CCN(CCCNC(=O)c2ccc3c(c2)NC(=O)/C(=C\c2cccc(C)c2)S3)CC1 | inconclusive: 35.5 µM [inhibitor, single point] | 
CCCCN1C(=O)/C(=C2/Sc3ccccc3N2C)S/C1=N\c1ncn[nH]1 | inconclusive: 15.8 µM [inhibitor, single point] | 
C[C@@H]1CCCCO[C@H](CN(C)C(=O)NC2CCCCC2)[C@@H](C)CN([C@H](C)CO)C(=O)c2cc(NC(=O)c3ccccc3)ccc2O1 |  | inactive: 0.677%
Cc1[nH]n(-c2ccccc2)c(=O)c1N=Nc1nccs1 | inconclusive: 7.08 µM [inhibitor, partial curve, poor fit] | 
